In PubChem BioAssay AID1745853 (National Center for Advancing Translational Sciences (NCATS), 2022):
The list shows a part of the results. Further columns of the screen follow, without active or inactive calls.

What was measured:
Experiment in all cases: Primary Screen for Target Class Profiling of Small Molecule Inhibitors of Methyltransferases
[1] = target: Glycine N-methyltransferase (Homo sapiens) (UniProt Q14749); details: purified enzyme, MTase-Glo SAH luminescence; measured here: GNMT inhibition; at 40 µM; stronger effect = lower value
Method in brief: (§1)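 Each enzyme was assayed with SAM and its substrate. SAH formation detected by MTase-Glo luminescence; single-point 40 uM screen[…].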

[2] = target: Guanidinoacetate N-methyltransferase (Homo sapiens) (UniProt Q14353); details: purified enzyme, MTase-Glo SAH luminescence; measured here: GAMT inhibition; at 40 µM; stronger effect = lower value
Method in brief: as §1

[3] = target: Histamine N-methyltransferase (Homo sapiens) (UniProt P50135); details: purified enzyme, MTase-Glo SAH luminescence; measured here: HNMT inhibition; at 40 µM; stronger effect = lower value
Method in brief: as §1

[4] = target: Nicotinamide N-methyltransferase (Homo sapiens) (UniProt P40261); details: purified enzyme, MTase-Glo SAH luminescence; measured here: NNMT inhibition; at 40 µM; stronger effect = lower value
Method in brief: as §1

[5] = target: Phenylethanolamine N-methyltransferase (Homo sapiens) (UniProt P11086); details: purified enzyme, MTase-Glo SAH luminescence; measured here: PNMT inhibition; at 40 µM; stronger effect = lower value
Method in brief: as §1
On the % scale 0 is the no-effect control and ±100 the full control effect.

SMILES	activity change, negative = inhibition [1]	activity change, negative = inhibition [2]	activity change, negative = inhibition [3]	activity change, negative = inhibition [4]	activity change, negative = inhibition [5]
C=C(C)C(=O)O[C@H]1[C@H]2C(=C)C(=O)O[C@@H]2C[C@@H](C)/C=C\C(=O)[C@](C)(O)[C@@H]1OC(C)=O	2.6%	7.26%	8.97%	-4.99%	8.58%
CO[C@@H]1CC[C@H](OC[C@]2(COC(=O)c3ccc(C)[nH]3)[C@H](OC(C)=O)CC[C@@]3(C)[C@@H]4CC=C(C)[C@@H](C5=C(O)C(=O)OC5O)[C@]4(C)CC[C@@H]32)O[C@H]1C (stereo partly drawn)	0%	-10.4%	-2.29%	-20.3%	-2.34%
O=C(/C=C/c1ccc(O)cc1)O[C@H]1[C@@H]2C=CO[C@@H](O[C@@H]3O[C@H](CO)[C@@H](O)[C@H](O)[C@H]3O)[C@@H]2[C@@]2(CO)O[C@@H]12	0.266%	2.58%	1.58%	-9.14%	4.56%
CC1(C(=O)NC2CCCCC2)Cn2nc(-c3ccco3)cc2C(=O)N1Cc1ccc(Cl)cc1 (stereo not drawn)	-7.28%	0%	1.18%	0.004%	-1.62%
COc1ccc2cc3n(c2c1)CC(C)(C(=O)NC1CCCC1)N(CCC(C)C)C3=O (stereo not drawn)	-4.14%	1.27%	0.302%	4.77%	-5.78%
COc1ccc(/C=C\C(=O)O)c(O[C@@H]2O[C@H](CO)[C@@H](O)[C@H](O)[C@H]2O)c1	0%	2.92%	1.93%	-8.64%	4.17%
c1ccc(CNc2cc(-c3cc(N4CCCCC4)ncn3)c3cc[nH]c3n2)nc1	-52.9%	-45.8%	-62.2%	-51.2%	-55.9%
COc1cc2nc(N3CCCCC3)nc(NC3CCN(Cc4ccccc4)CC3)c2cc1OC	–	11.4%	–	-53.2%	0.166%
Cc1ccc(NC(=O)CSc2nnc3n(Cc4ccc(F)cc4)c(=O)c4ccccc4n23)c(C)c1	8.86%	0%	12.8%	5.39%	5.69%
CCN(CC)c1ncccc1CNC(=O)Nc1cccc(OC)c1	-0.105%	-2.31%	-6.11%	-1.29%	-0.439%
O=C(NC[C@H]1O[C@@H](CO)[C@@H](O)[C@H]1N1CCOCC1)c1cccs1	-4.34%	-7.36%	-6.35%	-7.33%	-4.89%
COc1ccc(-c2cc3n(n2)CC(C)(C(=O)NCc2ccccc2OC)N(Cc2ccccc2OC)C3=O)cc1 (stereo not drawn)	0.757%	-0.529%	1.73%	-4.37%	-4.54%
CCC(=O)N1CCCC1c1nc(CCOCC2CCCC2)no1 (stereo not drawn)	-3.06%	-2.92%	-2.07%	-4.35%	3.09%
O=S(=O)(c1ccccc1)N1CCN(c2ccnc3ccnn23)CC1	-4.3%	-3.98%	-0.844%	-13%	-1.94%
CN1CC[C@@H](c2c(O)cc(O)c3c(=O)cc(-c4ccc(C(F)(F)F)cc4Cl)oc23)[C@@H]1CO	5.22%	8.11%	6.29%	-36.2%	7.78%
Cn1c2c(c3ccccc31)C(C(=O)NCc1ccccc1)N(CCC1=CCCCC1)C(=O)CS2 (stereo not drawn)	0.814%	0%	1.55%	-3.75%	-0.775%
CCC(C)NC(=O)c1ccc2c(=O)n(C)c3nn(CC(=O)Nc4cc(C)cc(C)c4)c(=O)n3c2c1 (stereo not drawn)	3.22%	4.96%	1.32%	3.4%	5.9%
Cn1ncc(CN2CC[C@@H](c3ccc4c(c3)OCO4)[C@H](O)C2)c1C1CC1	-4.47%	-3.8%	-0.902%	-3.43%	1.33%
CCCN1C(=O)c2c(C(=O)NCc3ccccc3OC)ncn2CC1(C)C(=O)NCc1ccc(F)cc1 (stereo not drawn)	-7.87%	0.71%	-3.51%	-0.176%	3.06%
c1ccc(CCc2nc3nccc(-c4cccnc4)n3n2)cc1	-8.79%	-10.6%	-5.67%	-7.86%	-2.11%
COc1ccc(-c2cc3n(n2)CC(C)(C(=O)NCc2ccccc2)N(c2cc(OC)cc(OC)c2)C3=O)cc1 (stereo not drawn)	6.16%	0.07%	11.1%	11.8%	3.91%
CCC(C)NC(=O)c1ccc2c(=O)n(CCC(C)C)c3nn(CC(=O)Nc4cccc(C)c4)c(=O)n3c2c1 (stereo not drawn)	1.94%	4.64%	1.97%	2.93%	1.76%
CCN1Cc2ccccc2N(CC(O)Cc2ccccc2)CCC1=O (stereo not drawn)	-2.57%	-3.89%	-1.9%	-6.57%	-1.92%
O=C(O)CO[C@@H]1COCC[C@H]1NC(=O)CCCn1cncn1	-6.07%	-6.63%	-3.45%	-8.98%	-9.29%
CC1CCC(NC(=O)Cn2ccc3cc(S(=O)(=O)N4CCCC4)ccc32)CC1 (stereo not drawn)	-1.66%	-2.4%	-8.42%	-9.51%	-28.2%
CC(=O)/C=C/[C@H]1[C@](C)(O)[C@@H](O)[C@H](OC(C)=O)C2C(C)(C)CCC[C@@]21C (stereo partly drawn)	-1.09%	-0.326%	6.84%	-12%	-5.91%
Cn1cc(-c2cnc(Nc3ccc(F)c(Cl)c3)c3c2CCO3)cn1	-5.55%	-4.81%	-0.707%	-3.78%	-2.21%
CCOC(=O)c1cc2n(n1)CC(C)(C(=O)NCc1ccc(Cl)cc1)N(c1ccc(OCC)cc1)C2=O (stereo not drawn)	3.53%	0.36%	6.32%	3.25%	4.95%
O=C(c1ccc(F)cc1)N1CCC2(CNc3ccccc3[S+](=O)([O-])N2)C1 (stereo not drawn)	-4.6%	-8.24%	-0.885%	-14.1%	-8.94%
